Data on 48 compounds can be found in PubChem BioAssay AID1963576 (National Center for Advancing Translational Sciences (NCATS), 2024).

Each structure is given as a SMILES string. In all, about 46,000 compounds went through this assay and about 60 (0.1%) were called active. About 3% were inconclusive and are not listed. Calls follow the shape of the dose curve; as a rule, active = well fitted inhibition curve with a large enough effect; inconclusive = small, poorly fitted or top-dose-only effect; inactive = no such curve, though single readings can be large or run the other way. The list shows a part of the results.

The experiment is described as follows: Primary qHTS assay for Inhibitors of ovarian cancer metastasis using an organotypic tumor microenvironment (TME) model. Also: nearly all actives have a fitted effect of over 65% in size.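 As to activity change, negative = inhibition: plate controls were DMSO wells for no effect and tomatine positive control wells for full effect.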 The settings on record: SKOV3ip1-GFP adhesion/invasion on 3D omental model, fluorescence; series mostly up to 45.8 µM; activity change, negative = inhibition: at the top concentration. An outline of the steps: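 Primary human omental fibroblast/mesothelial 3D culture pre-formed 48 h. SKOV3ip1-GFP cells added with compounds (0.36-46 umol/L), incubated 2 h RT/16 h 37 C, fixed; GFP cells quantified at 488/509 nm.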
Regarding `Oc1c(C(c2ccccc2F)N2CCN(Cc3ccccc3)CC2)sc2nc(-c3ccco3)nn12` (stereo not drawn), the “activity change, negative = inhibition” value is inactive: -5.32%. The same measure, in the same setting: with `CCNC(=O)c1c(NC(=O)Cc2coc3cc(C)cc(C)c23)sc2c1CCCC2` the figure was inactive: -14%; with `COc1ccccc1N1CCN(S(=O)(=O)c2c(C)sc3ncn(CC(=O)N(C)c4ccc(Cl)cc4)c(=O)c23)CC1`, inactive: -6.49%. Still for that read-out and setting: in the case of `COc1ccc(C(=O)OC2=C(C(=O)c3ccccc3)N(C)S(=O)(=O)c3ccccc32)cc1OC` it was inactive: -7.28%.

`COCCn1c(=NC(=O)c2ccc3c(c2)OCCO3)sc2cc(C(=O)OC)ccc21`: the “activity change, negative = inhibition” value was inactive: 7.28%. Consider `CCOc1ccccc1N(C)C(=O)C1CCCN(c2ncnc3c2nc2n3CCCCC2)C1` (stereo not drawn), for which the “activity change, negative = inhibition” value was inactive: -0.347%. Same read-out and setting: in the case of `Cc1ccc(-n2ncc3c(Nc4cccc(C)c4C)ncnc32)cc1` it was inactive: -3.28%. As for `Cc1ccc(NC(=O)c2cc(-c3ccc(Br)s3)nc3ccccc23)cc1F`, the “activity change, negative = inhibition” value was inactive: -2.45%. Same read-out and setting: with `Nc1ccc(S(N)(=O)=O)cc1` the figure was inactive: 32.6%; with `Cc1cc(C)c2c(=O)nc(SCc3ccccc3C)n(C3CC3)c2n1`, inactive: -4.99%. Regarding `Cc1ccc(Cl)cc1NC(=O)Cn1c(=O)oc2cc(S(=O)(=O)N3CCCC3)ccc21`, the call was inactive. Take `Cc1ccc2c(CC(=O)Nc3ccc(S(=O)(=O)N4CCCCC4)cc3)coc2c1`: the “activity change, negative = inhibition” value was inactive: -4.43%. For the compound `Cc1ccc(CN2C(=O)C3(c4ccccc42)N(c2cccc(F)c2)C(=O)CS3(=O)=O)cc1` (stereo not drawn), the call was inactive. The same measure, in the same setting: in the case of `COc1ccccc1N1CCN(CCCNC(=O)c2cnn(-c3cccc(Cl)c3)c2C2CCN(C(=O)OC(C)(C)C)CC2)CC1` it was “inactive”.

Take `CCOc1ccc(CNC(=O)Cn2cc3c(n2)-c2c(oc(C(=O)N4CCOCC4)c2C)CC3)cc1`: the “activity change, negative = inhibition” value is inactive: -4.2%. The same measure, in the same setting: with `CC(=O)Nc1ccc2nc(-c3cc(C)ccc3C)[nH]c2c1` the figure was inactive: -17.9%; with `CCc1cccc(-n2nnc(-c3nsc(NC(=O)c4cccs4)n3)c2C)c1`, inactive: -0.0448%.

Take `Cc1ccc(OCc2ccc(-c3nc(C#N)c(NCc4cccnc4)o3)o2)cc1`: the “activity change, negative = inhibition” value is inactive: 0.551%. Still for that read-out and setting: with `CCCCN(CC)CCNC(=O)c1cn(C)c(=O)c2c1c1ccccc1n2C` the figure was inactive: 5.09%. Same read-out and setting: with `COc1cc(NC(=O)NC(C)c2c(-n3cccc3)sc3c2CCCC3)cc(OC)c1OC` (stereo not drawn) the figure was inactive: -14.2%. As for `Cc1ccccc1CN1CCC(CNc2ncnc3onc(-c4ccc(F)cc4)c23)CC1`, the compound was classed as inactive. Turning to `CCOC(=O)c1c(C)c(-c2ccccc2)n(CC(=O)Nc2cc(C)ccc2OC)c1C`, the “activity change, negative = inhibition” value was inactive: -6.46%. As to `COc1ccccc1C(=O)Nc1nc(-c2ccccc2)ns1`, the compound was classed as inactive. Regarding `COc1ccccc1C(=O)NCCn1cc(SCc2ccccc2Cl)c2ccccc21`, the “activity change, negative = inhibition” value was inactive: 20.7%. Take `COc1ccccc1CNS(=O)(=O)c1cc2c3c(c1)CCN3C(=O)CC2`: the outcome was inactive. Consider `COc1ccc(-c2nc(-c3ccccc3)c(-c3ccc(O)cc3)[nH]2)cc1`, for which the “activity change, negative = inhibition” value was inactive: 6%.

As for `CCOc1ccccc1NC(=O)NCCn1c(=O)oc2ccc(C)cc21`, the result was inactive. As for `CCc1ccc(-c2nn(CC(=O)NC3CCCC3)c3c2cnc2ccc(F)cc23)cc1`, the “activity change, negative = inhibition” value was inactive: 9.21%. The same measure, in the same setting: in the case of `COC(=O)c1ccccc1NC(=O)Cn1nnc2sc(-c3ccccc3)cc2c1=O` it was inactive: -4.66%; in that of `Cc1ccc2sc(N3CCN(C(=O)CCS(=O)(=O)c4ccc(F)cc4)CC3)nc2c1C`, inactive: -3.62%. Regarding `COc1ccc(OC)c(CNC(=O)CCn2c(=O)c3cccn3c3ccc(F)cc32)c1`, the outcome was inactive. As to `O=C(/C=C/c1ccc(F)cc1)Nc1nc2n(n1)C(c1ccc(Cl)cc1)C=C(c1ccccc1)N2` (stereo not drawn), the “activity change, negative = inhibition” value was inactive: 0.615%. As to `COc1ccc(Cn2c(C(=O)O)c(CNC3CCCCCC3)c3ccc(OC)cc32)cc1`, the compound was called inactive. For the compound `Cc1ccc(N2CC(C(=O)Nc3ccc(Br)cc3)CC2=O)cc1` (stereo not drawn), the “activity change, negative = inhibition” value is inactive: 4.2%. `CCC1=Nc2cc(C(=O)NC3CCCC3)ccc2Sc2ccc(Br)cc21`: the compound was classed as inactive. On the same count and under the same terms, with `Cc1ccccc1-c1nc(CS(=O)(=O)CC(=O)NCc2cccc(Cl)c2)c(C)o1` the entry was “inactive”; with `COc1ccc(-n2ncc3c(NCCC4=CCCCC4)ncnc32)cc1`, “inactive”.

Take `Cc1noc(/C=C/c2ccco2)c1S(=O)(=O)N1CCC(C(=O)Nc2ccc(F)c(Cl)c2)CC1`: the call was inactive. `Cc1ccc2c(=O)c(C(=O)c3cccc(Cl)c3)cn(CC(=O)NCc3ccc(F)cc3)c2n1`: the compound was called inactive. Turning to `C=Cc1ccc(CN2C(=O)N(c3cccc(Cl)c3)S(=O)(=O)c3ccccc32)cc1`, the “activity change, negative = inhibition” value was inactive: -7.49%.

Take `COc1ccc(C(=O)n2nc(-c3ccco3)nc2NCc2cccs2)cc1`: the “activity change, negative = inhibition” value is inactive: 0.738%. The same measure, in the same setting: with `COc1cc(Nc2nc3ccccc3c3nnc(C)n23)cc(OC)c1` the figure was inactive: -8.35%; with `CC(C)C[C@H](NC(=O)c1cc2ccccc2s1)C(=O)N1CCN(C(=O)[C@H](CO)NS(=O)(=O)c2ccc(Cl)cc2Cl)CC1`, inactive: 2.64%; with `COc1ccc(C)cc1Nc1c2c(nc3nc(-c4cccs4)nn13)CCCC2`, inactive: 2.48%. On the same count and under the same terms, with `COc1cccc(CN2CCc3nc(SCC(=O)Nc4ccccc4)[nH]c(=O)c3C2)c1` the figure was inactive: 8.13%. With `CCCCN1CCCc2cc(CN(CCCN3CCOCC3)C(=O)Nc3ccc(OCC)cc3)ccc21`, the result was inactive. With `O=C(NCc1cccc(Cl)c1)C(=O)Nc1ccc2nc3n(c(=O)c2c1)CCCCC3`, the outcome was inactive. For the compound `O=S(=O)(NCCS(=O)(=O)N1CCN(c2ccccc2F)CC1)c1ccc(Cl)cc1`, the “activity change, negative = inhibition” value was inactive: -0.87%.
